Measurements taken from paper PMC4336329 (PLoS ONE, 2015).
Among all 310,000 compounds or so, about 14,000 (4.5%) showed an effect of 50% or more. The effect is printed as a negative number. Some of the results follow.

biological target: human ether-à-go-go-related gene (hERG) potassium channel (human, UniProt Q12809); test: primary screen, population patch clamp on CHO cells stably expressing hERG
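Also: peak tail current of the secondary pulse compared with the same well before compound.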

human ether-à-go-go-related gene (hERG) potassium channel, sequence (Q12809 whole entry, looked up): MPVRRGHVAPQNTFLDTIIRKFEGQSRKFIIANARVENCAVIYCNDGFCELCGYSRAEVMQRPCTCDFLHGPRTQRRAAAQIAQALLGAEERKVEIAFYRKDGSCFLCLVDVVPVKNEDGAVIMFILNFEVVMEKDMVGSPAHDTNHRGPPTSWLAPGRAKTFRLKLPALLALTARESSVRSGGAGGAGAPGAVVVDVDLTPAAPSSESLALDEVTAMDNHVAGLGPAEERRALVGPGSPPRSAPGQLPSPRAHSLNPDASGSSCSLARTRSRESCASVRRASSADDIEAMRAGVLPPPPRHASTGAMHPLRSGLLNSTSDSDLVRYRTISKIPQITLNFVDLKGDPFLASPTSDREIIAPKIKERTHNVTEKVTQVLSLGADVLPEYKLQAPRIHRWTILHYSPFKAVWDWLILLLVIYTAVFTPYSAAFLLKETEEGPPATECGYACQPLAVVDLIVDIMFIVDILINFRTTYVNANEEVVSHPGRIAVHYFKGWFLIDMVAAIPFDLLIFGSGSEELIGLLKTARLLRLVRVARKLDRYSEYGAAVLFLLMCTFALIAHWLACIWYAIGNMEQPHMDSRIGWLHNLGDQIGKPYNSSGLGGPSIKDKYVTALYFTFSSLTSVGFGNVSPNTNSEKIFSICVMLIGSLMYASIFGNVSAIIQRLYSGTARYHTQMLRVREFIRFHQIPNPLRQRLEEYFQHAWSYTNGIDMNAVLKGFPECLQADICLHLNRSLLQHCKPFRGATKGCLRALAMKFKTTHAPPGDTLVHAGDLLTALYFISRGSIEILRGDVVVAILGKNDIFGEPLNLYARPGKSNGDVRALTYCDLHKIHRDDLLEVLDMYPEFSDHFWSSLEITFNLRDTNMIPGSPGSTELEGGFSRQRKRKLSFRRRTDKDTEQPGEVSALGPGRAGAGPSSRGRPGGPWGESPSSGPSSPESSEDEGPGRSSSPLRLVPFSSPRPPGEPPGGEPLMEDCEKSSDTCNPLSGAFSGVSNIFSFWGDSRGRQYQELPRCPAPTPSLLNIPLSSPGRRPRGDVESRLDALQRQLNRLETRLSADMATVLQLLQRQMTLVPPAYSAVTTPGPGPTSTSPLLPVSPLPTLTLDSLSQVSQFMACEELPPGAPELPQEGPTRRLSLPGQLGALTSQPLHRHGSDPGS

SMILES | hERG current change (%, negative = inhibition) at 10uM [%]
COc1ccc(N(CC(=O)N2CCc3ccccc3C2)S(=O)(=O)c2c(C)[nH]c(=O)[nH]c2=O)cc1 | 16.7
CC(NC(=S)Nc1ccc(Cl)cc1)C(c1ccccc1)N1CCOCC1 (stereo not shown) | -13
COc1ccc(NC(=O)C2CCN(S(=O)(=O)c3ccc4c(c3)NC(=O)C(C)S4)CC2)cc1 (stereo not shown) | 14.8
CCC(O)C1CCN(C(=O)c2cc(COc3ccc4ncccc4c3)on2)CC1 (stereo not shown) | 3.26
CSc1nc2c(c(=O)[nH]1)C(c1ccccc1)C1=C(CC(C)(C)CC1=O)N2 (stereo not shown) | 15.5
CN1CCC(C2(O)c3ccccc3CSc3sccc32)CC1 (stereo not shown) | -1.44
CN1C(=O)CSc2ccc(NC(=O)N3CCC(N4CCCCC4)CC3)cc21 | -12.8
COc1ccc(C(=O)O/N=C(/c2cccs2)C(C)(C)C)cc1 | 6.91
O=C(O)/C=C/C(=O)Nc1ccccc1SC(F)(F)C(F)(F)C(F)(F)F | -0.932
CCC(C)Sc1nc2c(c(=O)[nH]c(=O)n2C)n1Cc1ccc(Cl)cc1 (stereo not shown) | 1.92
O=C(O)CSc1nnc(SCc2cccc3ccccc23)s1 | -4.57
CCc1sc(C(=O)Nc2cccc(C(C)=O)c2)cc1C | -22.4
CCOC(=O)c1[nH]c2ccc(OCC)cc2c1CCCN1C(=O)c2ccccc2C1=O | 21
COC(=O)CN1C(=O)[C@@H]2[C@H](C1=O)[C@@H]1CC(C(=O)OC)=C[C@@H](C(=O)OC)[C@@H]3C1=C(C(=O)[C@@]3(C)NC(=O)c1ccccc1)[C@@H]2C | -2.29
CC(C)[C@@H]1NC(=O)N(c2ccc(Oc3ccccc3)cc2)C1=O | 9.98
COc1ccc(NC(=O)CCC(=O)N(Cc2ccc(OC)c(OC)c2)c2nccs2)c(OC)c1 | 2.88
CCO.Cn1c2c(c(=O)n(C)c1=O)[C@@]1(C(=O)Nc3ccccc31)C(C#N)=C(N)O2 | 19.7
Cn1ccnc1Sc1ccc(C=O)cc1[N+](=O)[O-] | -3.05
CCCCn1c(SCC(=O)Nc2ccc(NC(C)=O)cc2)nc2ccccc2c1=O | -2.55
O=C(NCc1ccccc1)c1cccc(COc2ccc(Cl)cc2)c1 | 5.77
O=C(O)CC(NCc1ccco1)C(=O)OCCCl (stereo not shown) | 16.2
CCOC(=O)c1ccccc1NC(=O)C1COc2ccccc2O1 (stereo not shown) | 11.9

SMILES | hERG current change (%, negative = inhibition) at 10uM [%]
C[C@@]12C(=O)N(Cc3ccccc3)CC(=O)N1[C@H](/C=C/c1ccccc1)[C@@H]1C(=O)N(c3ccccc3)C(=O)[C@@H]12 | -23
CCCn1nnnc1SCC(=O)N1CCCC1 | 6.66
CCCCn1c(Cc2ccccc2)nnc1SCC(=O)N1CCOCC1 | 0.754
O=[N+]([O-])c1ccc(Oc2cccc(Br)c2)c2ccncc12 | 12.8
CN1CCc2c(sc3nc(SCC(N)=O)n(-c4ccccc4)c(=O)c23)C1 | 6.28
C/C(=N/NC(=O)c1sc(NS(=O)(=O)c2ccccc2)nc1C)c1sc(N)nc1C | 10.6
CC1CCN(S(=O)(=O)c2ccc3[nH]c(=O)c(=O)[nH]c3c2)CC1 | -3.68
NS(=O)(=O)c1ccc(-c2ccc(/C=N/Nc3ccc(C(=O)O)cc3)o2)cc1 | 11.7
COc1ccc(-c2cc(C(=O)Nc3cc(S(N)(=O)=O)ccc3C)c3ccccc3n2)cc1OC | 6.84
Cc1ccc(OCC(=O)c2cc(C)n(-c3ccccc3)c2C)c([N+](=O)[O-])n1 | -12.8
O=C(Nc1ccc(S(=O)(=O)N2CCOCC2)cc1)c1cc([N+](=O)[O-])ccc1Cl | 10.8
NS(=O)(=O)c1ccc(N=Cc2c(O)n(C3CCCCC3)c(=O)n(C3CCCCC3)c2=O)cc1 | 2.1
Cc1ccc(C(NC(=O)CN2C(=O)NC3(CCCC3)C2=O)c2ccccc2)cc1 (stereo not shown) | 8.34
COc1ccc(CNC(=S)Nc2ccccc2)cc1Cl | -0.0446
CCCc1cc(=O)oc2c(C)c(OC(C)C(=O)NCc3ccccn3)ccc12 (stereo not shown) | -43.5
O=C(COc1ccc(F)c(Cl)c1)N1CCN(c2ccccn2)CC1 | -55.3
COCCn1c(N)c(NCc2ccccc2)c(=O)n(CC(=O)Nc2cc(C)ccc2C)c1=O | -1.7
Cc1ccc(C)c(NC(=O)CN2C(=O)COc3ccc(S(=O)(=O)N4CCCC4)cc32)c1 | -0.517
Cc1ncc(CN2CCCC(C(=O)Nc3ccc(-c4cccc(F)c4)cc3)C2)s1 (stereo not shown) | 1.64
NC(=S)N/N=C/c1ccc(OC(=O)c2cccnc2)cc1 | 13.3
N#CC(C#N)=C1NC2(CCCCC2)Cc2ccccc21 | -1.99
COc1ccc(S(=O)(=O)n2cnc3ccccc32)cc1.Cl | 13.4

SMILES | hERG current change (%, negative = inhibition) at 10uM [%]
CCC1(OC(=O)CN)C(=O)OCc2c1cc1n(c2=O)Cc2cc3ccccc3nc2-1.Cl (stereo not shown) | 8.16
CCOC(=O)CN1CCC(c2cc(-c3ccc(Cl)cc3)n[nH]2)CC1 | -12.5
CCN(CC)Cc1c(NC(=O)c2ccccc2)sc(C)c1C | -38.8
O=[N+]([O-])c1cccc(S(=O)(=O)Nc2ccc(S(=O)(=O)NCC3CCCO3)cc2)c1 (stereo not shown) | -0.96
O=[N+]([O-])c1ccc(-c2cn(-c3ccc(Cl)cc3)c(=S)[nH]2)cc1 | -0.247
COc1ccc(C(=O)NC2CCN(C(=S)Nc3cc(C)ccc3C)CC2)cc1 | 2.78
CC(C)Nc1nc(NC(N)=S)nc(NC(C)C)n1 | 7.4
COc1cc(/C(C#N)=C/c2cccc3ccccc23)c([N+](=O)[O-])cc1OC | 17.4
c1ccc(-c2nn3c(Cn4nnc5ccccc54)nnc3s2)nc1 | -14.4
Cc1nn(C(C)(C)C)c(OC(=O)CC(C)C)c1S(=O)(=O)c1ccccc1 | 5.75
O=P(Cc1cc[n+]([O-])cc1)(c1ccccc1)c1ccccc1 | 12.6
CCC(Oc1ccccc1F)C(=O)Nc1ccc2c(c1)n(C)c(=O)n2C (stereo not shown) | 7.19
C=CCNC(=S)N1CCN(c2ccc([N+](=O)[O-])cc2)CC1 | -63.6
CCCc1nc2sc3c(c2c(=O)n1NC(=O)c1ccco1)CC(C)(C)OC3 | 11.8
CC(C)(C)c1cc(NC(=O)c2cccnc2)no1 | -9.07
CNC(=S)Nc1cccc(C(=O)OC)c1 | 7.73
Cc1ccc2c(CSc3nncs3)cc(=O)oc2c1 | -26.7
Cc1nnc(SCC(=O)NCC2COc3ccccc3O2)s1 (stereo not shown) | 15.5
CCSc1ncnc2c(C#N)c3n(c12)CCCCC3 | -23.8
Nc1nc(Nc2ccccc2F)nc(NCCO)c1[N+](=O)[O-] | -9.81
NC(=O)c1c(NC(=O)c2ccccc2)sc2c1CCc1ccccc1-2 | -0.721
CCOC(=O)C1CCCN(CC(=O)Nc2c(C(=O)OC)[nH]c3ccc(Cl)cc23)C1 (stereo not shown) | -12.3

SMILES | hERG current change (%, negative = inhibition) at 10uM [%]
NS(=O)(=O)c1cc(C(=O)OCC(=O)Nc2ccccc2[N+](=O)[O-])ccc1Cl | -6.13
COc1ccc(CC2(CO)CCN(C/C=C/c3ccccc3OC)CC2)cc1 | -72.8
CC(=O)NC(Cc1cccc(F)c1)C(=O)NC1CCN(C(=O)Nc2ccc(C)cc2)CC1 (stereo not shown) | 20.3
COc1cccc(C2C(C(=O)c3cccs3)=C(O)C(=O)N2CCN2CCOCC2)c1 (stereo not shown) | 24
CCN(CC)S(=O)(=O)c1ccc(N2CCN(CCOc3ccc(OC)cc3)CC2)nc1 | -46.8
CCOC(=O)c1c(NC(=O)c2cccs2)sc2c1CC(C)(C)OC2 | 4.12
COc1ccc(Cc2nnc(NC(=O)C3CC(=O)N(c4ccccc4)C3)s2)cc1OC (stereo not shown) | -4.44
Cc1ccc(C(=O)N/C(=C\c2ccc(-c3ccc(Cl)cc3)o2)C(=O)NCCCN(C)C)cc1 | -85
CCNC(=S)NNC(=O)c1nn(C)c(C)c1Cl | 19
CN(C)CCNC(C(=O)Nc1cccc(C(F)(F)F)c1)c1ccccc1.O=C(O)C(=O)O (stereo not shown) | -56.7
CC(C)CNC(CC(=O)O)c1ccccc1 (stereo not shown) | 5.03
CCOc1ccccc1NC(=O)COc1coc(CN2CCCc3ccccc32)cc1=O | 3.31
O=C(CCCSc1nc2ccccc2[nH]1)NCc1ccccc1F | -5.8
COc1ccc(-c2nc(CN3CCN(Cc4cccc(F)c4)CC3)c(C)o2)cc1 | -46.6
COc1ccc(N2CCN(C(=O)CCc3ccc(S(=O)(=O)NC(C)(C)C)cc3)CC2)cc1 | -26.2
CCOC(=O)c1c(C)nn(-c2ncccc2NC(=O)NC(C)C)c1C | -5.56
CC(CN1CCCCC1)OC(=O)c1ccccc1F.Cl (stereo not shown) | -6.41
O=c1cc(O)c(-c2cccc(C(F)(F)F)c2)c(Cl)[nH]1 | 22.5
Cc1ccccc1C(=O)NC(NCC1CCCO1)C(Cl)(Cl)Cl (stereo not shown) | -7.57
